Data taken from patent US8242178B2 (University of South Carolina, priority 2007, dated 2012).

Tested on: Jurkat cell line (Mek/30)
Assay: THC-induced apoptosis in Jurkat cells inducibly expressing constitutively active MEK
Details: THC in the presence of doxycycline at 12 hours
Source text: Western analysis was used to monitor expression of the HA tag, and various proteins. Arrows represent THC-induced breakdown products or active caspases.
Based on this, THC-mediated down regulation of the MAPK signaling contributes to the marked potentiation of apoptosis. To define the functional role of enforced activation of MEK/ERK in regulating THC-induced cell death, a Jurkat cell line that inducibly expresses a constitutively active MEK construct (Mek/30) under the control of a doxycyline-responsive promoter was employed. […] However, when cells were cultured in the presence of doxycycline, a pronounced increase in expression of the HA tag was noted, along with substantial increases in expression of both phospho-MEK and -ERK. Enforced activation of ERK1/2 also diminished THC-mediated activation of procaspase-8, bid, -9 and -3, as well as PARP degradation.

CCCCCc1cc(O)c2c(c1)OC(C)(C)[C@@H]1CCC(C)=C[C@@H]21 [THC, Δ9-tetrahydrocannabinol]
apoptosis of cells: essentially abrogated
